Data taken from PubChem BioAssay AID588855 (National Center for Advancing Translational Sciences (NCATS), 2011).
“And” between values parts separate entries of the source, which are not always exact repeats. Equal entries are not always repeated. The campaign covered roughly 410,000 compounds. About 5,000 (1.2%) were called active. The inconclusive results got no clear call from the source; some entries with a clear call stand among them for comparison. Calls follow the shape of the dose curve; as a rule, active = well fitted inhibition curve with a large enough effect; inconclusive = small, poorly fitted or top-dose-only effect; inactive = no such curve, though single readings can be large or run the other way. Where the call is inconclusive, the potency comes from a doubtful curve fit.

Test: qHTS for Inhibitors of TGF-b; also: nearly all actives have a fitted effect of over 65% in size
Conditions: HepG2 CAGA-GFP TGF-b/SMAD3 reporter, GFP fluorescence, 18 h, TGF-beta stimulated, 500 pg/mL final; series mostly up to 46.1 µM; activity, negative = inhibition: at the top concentration
Method in brief: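 HEPG2 CAGA-GFP cells (1000/well, DMEM with 1% FBS) were pre-incubated 2 h at 37 degrees C, given compound by pin tool, then stimulated with TGF-beta at 500 pg/mL final for 18 h before per-cell GFP fluorescence imaging.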
% is scaled to controls: 0 for no effect and ±100 for the full control effect; potency is read from the fitted curve at half-maximal effect; tags tell the direction and shape of the fitted curve.

For `COC(=O)C1=C(c2cc3ccccc3s2)C[C@@H]2CC[C@H]1N2C(=O)N1CCC(C)CC1`, which Potency is on record?
The Potency was inconclusive: 25.1 µM [inhibitor, partial curve, poor fit].

Which “activity, negative = inhibition” value does the source give for `Cc1nc2ccccc2c(=O)n1-n1cnnc1` here?
The value was inactive: -3.34%.

With `CC(C)(C)c1ccc(O)c(N=Cc2c(O)ccc3ccccc23)c1` as the compound, how does the Potency read?
The Potency was inconclusive: 35.5 µM [inhibitor, single point].

With `Cc1nn(Cc2ccccc2)c(C)c1C=C1C(=O)NC(=S)NC1=O` as the compound, how does the Potency read?
The Potency was inconclusive: 3.98 µM [inhibitor, single point].

Which Potency does the source give for `CC1=CC(O)C(O)C2(C)C1CC1OC(=O)CC3C(C)C(O)C(=O)C2C13CO` (stereo unspecified) here?
Its Potency is inconclusive: 25.1 µM [inhibitor, single point].

With `COC(=O)C1=C(c2ccc(OC(F)(F)F)cc2)C[C@@H]2CC[C@H]1N2C(=O)NCCNC(C)=O` as the compound, how does the Potency read?
Its Potency is inconclusive: 11.2 µM [inhibitor, partial curve].

Which Potency does the source give for `O=C(NCc1ccccc1)c1cccn(Cc2ccccc2)c1=O` here?
Its Potency is inconclusive: 25.1 µM [inhibitor, single point].

Which Potency does the source give for `Cc1cccc(Cn2cc(C=O)c3ccccc32)c1` here?
Its Potency is active: 1.12 µM.

For `O=Cc1ccccc1`, which Potency is on record?
Its Potency is inconclusive: 5.62 µM [inhibitor, single point].

With `Cc1c(C(=O)c2cccc3ccccc23)c2cccc3c2n1[C@H](CN1CCOCC1)CO3` as the compound, how does the Potency read?
The Potency was inconclusive: 6.31 µM [inhibitor, partial curve, poor fit].

Which Potency does the source give for `CC/C(CC(c1ccccc1)c1c(O)c2ccccc2oc1=O)=N\NC(N)=S` (stereo unspecified) here?
The Potency was inconclusive: 14.1 µM [inhibitor, single point].

Which “activity, negative = inhibition” value does the source give for `O=C(COc1ccccc1Cl)N1CCCC(N2CCN(c3ccc(F)cc3)CC2)C1` (stereo unspecified) here?
Its value is inactive: -25.1%.

With `CN(C)c1cccc2c(C#N)ccc(N(C)C)c12` as the compound, how does the “activity, negative = inhibition” value read?
The value was inactive: -0.371%.

For `C[C@]12CC[C@H](OS(=O)(=O)O)CC1=CC[C@@H]1[C@@H]2CC[C@]2(C)C(=O)CC[C@@H]12`, which Potency is on record?
The Potency was “inactive”.

For `Cc1ccc(OCC(=O)Nc2ccc(Cl)cc2C(=O)c2ccccc2)cc1`, which Potency is on record?
The Potency was “inactive”.

For `CN(C)CC/C=C1/c2ccccc2Sc2ccc(Cl)cc21`, which Potency is on record?
Its Potency is inconclusive: 31.6 µM [inhibitor, single point].

Which Potency does the source give for `O=C1NCN(c2ccccc2)C12CCN(C(c1cccc3ccccc13)c1nnnn1C1CCCC1)CC2` (stereo unspecified) here?
Its Potency is inconclusive: 14.1 µM [inhibitor, partial curve, poor fit].

Which Potency does the source give for `CC(=O)N1CCN(c2ccc(OC[C@H]3CO[C@](Cn4ccnc4)(c4ccc(Cl)cc4Cl)O3)cc2)CC1` here?
Its Potency is inconclusive: 14.1 µM [inhibitor, single point] and inconclusive: 15.8 µM [inhibitor, single point].

For `COCCCN1CCN(c2nnc3n2-c2sc(Br)cc2C(c2ccccc2Cl)=NC3)CC1`, which “activity, negative = inhibition” value is on record?
Its value is inactive: -10.3%.

Which “activity, negative = inhibition” value does the source give for `COc1cccc(N2CCN(Cc3ccc(Cl)cc3)CC2)c1` here?
Its value is inactive: -8.93%.

For `Cc1cc([N+](=O)[O-])c2ccccc2[n+]1[O-]`, which Potency is on record?
The Potency was active: 0.501 µM.

For `C=C(COC(C)=O)CC1CC(O)[C@]2(C)OC3CC4OC5C[C@]6(C)O[C@]7(C)CCC8OC9C[C@]%10(C)OC%11C(C)=CC(=O)OC%11CC%10OC9C[C@@H](C)C8OC7CC6O[C@]5(C)C/C=C\C4OC3CC2O1` (stereo partly specified), which Potency is on record?
Its Potency is inconclusive: 5.01 µM [inhibitor, full curve, poor fit].

With `CCOC(=O)c1ccc(NC(=O)c2sc3nc4c(cc3c2N)N2CCC4CC2)cc1` as the compound, how does the “activity, negative = inhibition” value read?
Its value is inactive: 3.33%.

Which Potency does the source give for `Cc1cccc(NP(=O)(Oc2ccccc2F)Oc2ccccc2F)c1C` here?
The Potency was inconclusive: 35.5 µM [inhibitor, single point].

Which Potency does the source give for `CCOC(=O)C1(CCOc2ccccc2)CCN(Cc2ccc(C)s2)CC1` here?
Its Potency is inconclusive: 22.4 µM [inhibitor, partial curve, poor fit].

With `CC1C2Cn3c(nc4ccccc43)C1N(C)O2` (stereo unspecified) as the compound, how does the Potency read?
Its Potency is inconclusive: 0.501 µM [inhibitor, partial curve, poor fit].

With `O=C(O)C1C2c3ccccc3C(=O)C1(C(=O)O)c1ccccc12` (stereo unspecified) as the compound, how does the Potency read?
Its Potency is inconclusive: 0.251 µM [inhibitor, full curve, poor fit].

With `O=P(Nc1cccc(F)c1)(Oc1ccccc1F)Oc1ccccc1F` as the compound, how does the Potency read?
The Potency was inconclusive: 14.1 µM [inhibitor, single point].

For `COc1cccc(C(c2nnnn2-c2c(C)cccc2C)N2CCC(n3c(=O)[nH]c4ccccc43)CC2)c1OC` (stereo unspecified), which Potency is on record?
The Potency was inconclusive: 12.6 µM [inhibitor, partial curve, poor fit].

With `O=C(c1ccc(Cl)cc1)C1CCCN(Cc2cccc3cnccc23)C1` (stereo unspecified) as the compound, how does the Potency read?
The Potency was inconclusive: 22.4 µM [inhibitor, single point].

Which Potency does the source give for `Cc1ccc(/C=C/C2=NN(Cc3ccc(Cl)c(Cl)c3)C(=O)CC2)cc1` here?
The Potency was active: 11.2 µM.

With `CC(C)Oc1cc(-n2c(=S)[nH]c3ccccc3c2=O)c(Cl)cc1Cl` as the compound, how does the Potency read?
Its Potency is inconclusive: 35.5 µM [inhibitor, single point].

With `CCCCCn1c(=O)c(C(=O)Nc2ccccc2S(N)(=O)=O)c(O)c2ccccc21` as the compound, how does the Potency read?
The Potency was inconclusive: 8.91 µM [inhibitor, partial curve].

For `CCOC(=O)c1c(C)n(Cc2ccccc2)c2ccc(OCC(O)Cn3nc(C)cc3C)cc12` (stereo unspecified), which Potency is on record?
Its Potency is active: 14.1 µM.

Which Potency does the source give for `Clc1ccc(CSC(Cn2ccnc2)c2ccc(Cl)cc2Cl)cc1` (stereo unspecified) here?
The Potency was inconclusive: 31.6 µM [inhibitor, single point].

Which Potency does the source give for `C[C@]12CC[C@H](O)C[C@H]1CC[C@@H]1C2CC[C@]2(C)[C@@H](C3=CC(=O)OC3)[C@@H](O)C[C@]12O` (stereo partly specified) here?
Its Potency is active: 11.2 µM.

With `C[C@H]1COC(=O)[C@H](Cc2ccc(F)cc2)CC/C=C/C[C@@H](CC(=O)N(CCO)Cc2ccccc2)C(=O)N1` as the compound, how does the Potency read?
Its Potency is inconclusive: 22.4 µM [inhibitor, single point].

For `COC(=O)C1=C(c2ccc(OC(F)(F)F)cc2)C[C@@H]2CC[C@H]1N2C(=O)NCCc1ccccc1`, which Potency is on record?
Its Potency is inconclusive: 14.1 µM [inhibitor, partial curve, poor fit].

Which Potency does the source give for `CN1CCN(c2ccc([N+](=O)[O-])c3no[n+]([O-])c23)CC1` here?
The Potency was active: 3.16 µM.

Which “activity, negative = inhibition” value does the source give for `O=[N+]([O-])c1cccc(CCl)c1` here?
Its value is inactive: 3.68%.

For `CCc1ccc(NC(=O)CN2C(=O)C3(SCC(=O)N3c3ccc(F)c(F)c3)c3ccccc32)cc1` (stereo unspecified), which Potency is on record?
Its Potency is inconclusive: 11.2 µM [inhibitor, partial curve, poor fit].
